# Source: PubChem BioAssay AID1476 (National Center for Advancing Translational Sciences (NCATS), 2009)
# In all, about 200,000 compounds went through this assay and about 4,500 (2.2%) were called active. Inconclusive results, whose numbers are uncertain, are shown with a selection of clear calls. The call rests on the fitted dose curve; in most records, active means well fitted inhibition curve with a large enough effect; inconclusive means small, poorly fitted or top-dose-only effect, or effect the other way; inactive means flat fitted curve, though single readings scatter. Where the call is inconclusive, the potency comes from a doubtful curve fit.
# Target: Cruzipain (Trypanosoma cruzi) (UniProt P25779)
# UniProt P25779, sequence (P25779 whole entry, looked up): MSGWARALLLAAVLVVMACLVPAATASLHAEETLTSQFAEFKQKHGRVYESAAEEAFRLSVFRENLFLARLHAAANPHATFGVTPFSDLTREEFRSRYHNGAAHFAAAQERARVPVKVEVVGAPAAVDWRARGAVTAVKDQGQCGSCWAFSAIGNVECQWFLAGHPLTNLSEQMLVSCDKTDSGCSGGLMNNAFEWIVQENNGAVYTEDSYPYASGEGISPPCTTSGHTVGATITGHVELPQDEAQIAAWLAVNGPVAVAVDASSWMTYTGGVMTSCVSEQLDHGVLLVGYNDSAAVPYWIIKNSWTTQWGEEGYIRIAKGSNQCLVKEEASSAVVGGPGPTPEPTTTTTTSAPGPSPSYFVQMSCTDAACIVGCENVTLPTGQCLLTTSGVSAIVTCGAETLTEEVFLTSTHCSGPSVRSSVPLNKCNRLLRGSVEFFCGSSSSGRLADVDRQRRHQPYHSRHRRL
# Test: qHTS Assay for Promiscuous and Specific Inhibitors of Cruzain (without detergent); further: nearly all actives have a fitted effect of over 40% in size;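 on max response, negative = inhibition: plate controls were enzyme without inhibitor for no effect and buffer without enzyme for full effect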
# Conditions: purified cruzain, Z-FR-AMC fluorescence, no detergent
# Outline: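 Detergent-free condition (0.00005% Triton X-100) in acetate buffer pH 5.5 with DTT. 1.5 nM enzyme and compound were pre-mixed 15 min, then 2 uM Z-FR-AMC substrate added; reaction progress from fluorescence change between first and third reads (60 s).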
# Potency means the concentration at half of the fitted maximal effect; tags describe the fitted curve by direction and shape.
SMILES,Potency,"max response, negative = inhibition"
CC(C)N1C(=O)/C(=C\c2nc3ccccc3c(=O)n2-c2ccccc2)c2ccccc21,"inconclusive: 39.8 µM [activator, single point]",–
CCOC(=O)c1c(NC(=O)CSc2ncnc3ccccc23)sc(C(C)=O)c1C,"inconclusive: 25.1 µM [activator, partial curve]",–
CCOc1cc(CNc2cccc3ccccc23)cc(Br)c1OCC(=O)NC(C)(C)C,"inconclusive: 5.01 µM [inhibitor, partial curve]",–
O=C(Nc1ccc2oc(-c3cccnc3)nc2c1)c1ccc(-c2ccccc2OC(F)(F)F)o1,–,inactive: -25.5%
COCCn1c(N)c(C(=O)OCc2ccccc2)c2nc3ccccc3nc21,"inconclusive: 20 µM [activator, partial curve]",–
CCOC(=O)C1=C(C)OC(N)=C(C#N)C1c1c(C)nn(-c2ccccc2)c1Cl (centres undefined),"inconclusive: 0.0251 µM [inhibitor, partial curve, poor fit]",–
COc1ccccc1N1CCN(c2ccc(=O)n(CC(=O)NCc3ccc(OC(C)C)cc3)n2)CC1,"inconclusive: 25.1 µM [activator, single point]",–
COc1ccc(Oc2c(C(F)(F)F)oc3c(CN4CCCC(C)C4)c(O)ccc3c2=O)cc1 (centres undefined),–,inactive: 15.4%
O=C(Nc1ccc(N2CCOCC2)cc1)Nc1ccc2nc(-c3ccco3)c(-c3ccco3)nc2c1,"inconclusive: 3.16 µM [inhibitor, partial curve]",–
CCOc1cc2[nH]c(=O)n(CCc3ccc(OC)c(OC)c3)c(=O)c2cc1OCC,"inconclusive: 12.6 µM [activator, partial curve]",–
CC(C)=CCc1c2c(c3occ(-c4ccc(O)cc4)c(=O)c3c1O)C=CC(C)(C)O2,"inconclusive: 25.1 µM [inhibitor, partial curve, poor fit]",–
CN(C)S(=O)(=O)c1ccc2c(c1)N(CC(=O)NCc1ccc(F)cc1)C(=O)CS2,"inconclusive: 3.98 µM [activator, single point]",–
COc1cc(/C=N/Nc2nc3ccccc3s2)ccc1OC(=O)c1ccccc1F,"inconclusive: 39.8 µM [inhibitor, single point]",–
COc1ccc(-c2csc(N(CCc3ccc(OC)c(OC)c3)C(=O)COc3ccccc3)n2)cc1,"inconclusive: 7.94 µM [inhibitor, partial curve]",–
COC(=O)c1scc(-c2ccc(C)cc2)c1S(=O)(=O)Nc1ccc(F)cc1F,–,inactive: -9.77%
Cc1ccc(N2CCN(S(=O)(=O)c3cc(C(=O)Nc4cc(Cl)cc(Cl)c4)ccc3F)CC2C)cc1 (centres undefined),active: 2.51 µM,–
CCCc1cc(C(=O)Nc2sc3c(c2C(=O)OCC)CCCC3)no1,"inconclusive: 20 µM [inhibitor, partial curve, poor fit]",–
Cc1ccc(NC(=S)N2CCC(c3nc4ccccc4s3)CC2)cc1,"inconclusive: 39.8 µM [inhibitor, single point]",–
CSCCC(NS(=O)(=O)c1ccc2c(c1)oc(=O)n2C)C(=O)NC1CCCc2ccccc21 (centres undefined),"inconclusive: 39.8 µM [inhibitor, single point]",–
COc1cc2c(C#N)c(N3CCc4ccccc4C3)nc(N)c2c(N)n1,active: 12.6 µM,–

SMILES,Potency,"max response, negative = inhibition"
O=C(Nc1cc(Cl)cc(Cl)c1)c1ccc2c(c1)N(Cc1cccc(Cl)c1)C(=O)c1ccccc1S2=O (centres undefined),–,inactive: -5.94%
COc1ccccc1NC(=O)c1cc(S(=O)(=O)N2CCN(c3ccccc3Cl)CC2)ccc1F,active: 10 µM,–
COc1ccccc1NC(=O)Cn1c(=O)n(CCc2c[nH]c3ccccc23)c(=O)c2cccnc21,active: 20 µM,–
Cc1ccc2c(c1)c(=O)c1ccccc1n2CCCC(=O)Nc1cc(Cl)ccc1C,–,inactive: 15%
Cc1ccc(C2=N/C(=C\c3cccnc3)C(=O)O2)cc1,active: 12.6 µM,–
COc1ccccc1NS(=O)(=O)c1ccc(N/N=C(\C)C(C)C)c([N+](=O)[O-])c1,–,inactive: -2.47%
COc1ccc(Cn2c(SCc3ccccc3C)nc3cc(OC)c(OC)cc3c2=N)cc1,"inconclusive: 31.6 µM [inhibitor, single point]",–
Cn1c(N2CCC(C(N)=O)CC2)nc2c1c(=O)n(Cc1cccc(Br)c1)c(=O)n2C,"inconclusive: 39.8 µM [activator, single point]",–
CCOc1ccc(C(=O)NCCc2sc(-c3ccc(OC)c(OC)c3)nc2C)cc1,"inconclusive: 39.8 µM [activator, single point]",–
Cc1ccc(C)c(N2CCN(C(=O)c3cc(C)nc4c3c(C)nn4-c3cccc(F)c3)CC2)c1,–,inactive: -5.08%
COc1cc(C(C)=O)ccc1Oc1ncnc2c1cnn2-c1ccc(C)c(C)c1,"inconclusive: 31.6 µM [activator, single point]",–
COc1ccc2c(c1[N+](=O)[O-])CCC/C2=N/OC(=O)c1ccccc1SC,"inconclusive: 39.8 µM [inhibitor, single point]",–
Cc1noc(C)c1C(=O)N1CCC2(CCCN(c3ccccc3)C2)CC1,"inconclusive: 39.8 µM [activator, single point]",–
O=C(O)C12CC3(C(=O)O)CC(C(=O)O)(CC(C(=O)O)(C1)C3=O)C2=O,–,inactive: 5.84%
O=C(CN1CCN(c2nc(-c3ccccc3)cs2)CC1)NCc1ccc2c(c1)OCO2,"inconclusive: 39.8 µM [activator, single point]",–
Cc1ccc(C)c(-n2c3nc(=O)[nH]c(=O)c-3cc3c(C)nn(-c4ccccc4)c32)c1,–,inactive: 5.98%
O=C(Nc1cccc2nsnc12)c1ccc(-c2cccc(Cl)c2)o1,"inconclusive: 25.1 µM [inhibitor, partial curve, poor fit]",–
CCC(C)c1ccc(NC(=O)C2CCCN(c3ncccn3)C2)cc1 (centres undefined),"inconclusive: 39.8 µM [activator, single point]",–
C[C@@]12CC[C@H](O[C@@H]3O[C@H](CO)[C@@H](O)[C@H](O)[C@@H]3O)C[C@@H]1CC[C@H]1[C@H]2CC[C@@]2(C)[C@@H](C3=CCOC3=O)CC[C@]12O,–,inactive: -7.34%
